# Out of some 150,000 compounds screened, about 6,500 (4.3%) were called active. Inconclusive results, whose numbers are uncertain, are shown with a selection of clear calls. The call rests on the fitted dose curve; in most records, active means well fitted inhibition curve with a large enough effect (not every such curve was filed as active); inconclusive means small, poorly fitted or top-dose-only effect, or another doubt; inactive means no such curve, though single readings can be large or run the other way. Potencies of inconclusive entries are left out as doubtful fits.
# Biological target: 15-hydroxyprostaglandin dehydrogenase [NAD(+)] (Homo sapiens) (UniProt P15428)
# Test: qHTS Assay for Inhibitors of HPGD (15-Hydroxyprostaglandin Dehydrogenase)
# Conditions: purified HPGD, NADH fluorescence kinetic, PGE2 substrate; activity change, negative = inhibition: active compounds read low
# How it was run: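 NADH formation kinetics: reaction with 30 uM PGE2 and 1 mM NAD+ (final), 20 nM enzyme, Tris-HCl pH 8 with Tween 20, after 15 min compound preincubation at room temperature. Fluorescence change, last versus first of five reads.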
# On the % scale 0 is the no-effect control and ±100 the full control effect; potency means the concentration at half of the fitted maximal effect; tags describe the fitted curve by direction and shape.
# Sequence of UniProt P15428 (P15428 whole entry, looked up): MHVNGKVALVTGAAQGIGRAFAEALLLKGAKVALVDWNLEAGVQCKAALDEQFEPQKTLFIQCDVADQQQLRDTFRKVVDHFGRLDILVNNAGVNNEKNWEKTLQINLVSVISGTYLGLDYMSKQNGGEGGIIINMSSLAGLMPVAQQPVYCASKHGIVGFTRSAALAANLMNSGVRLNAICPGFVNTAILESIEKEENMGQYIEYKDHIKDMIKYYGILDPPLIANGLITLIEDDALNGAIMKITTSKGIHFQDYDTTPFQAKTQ
Compound,Potency,"activity change, negative = inhibition"
CN(C)/N=C/c1c(O)ccc2ccccc12,active: 31.6 µM,–
C=CCn1c(SCC(=O)c2ccc(NS(=O)(=O)c3ccccc3)cc2)nnc1-c1cccs1,"inconclusive [inhibitor, single point]",–
COc1ccc2cc(C(c3nnnn3Cc3ccc(F)cc3)N3CCCCCC3)c(=O)[nH]c2c1 (stereo unspecified),"inconclusive [inhibitor, single point]",–
CCCCc1ccc(NC(=O)CSC2=C(C#N)C(c3ccco3)C3=C(CCCC3=O)N2)cc1 (stereo unspecified),"inconclusive [inhibitor, partial curve]",–
C=CCn1c(CSc2nc3ccccc3s2)nnc1SCC(=O)NCc1ccco1,active: 17.8 µM,–
COc1ccc(-c2nc3cccc(C)n3c2NCc2ccco2)cc1OC,"inconclusive [inhibitor, partial curve]",–
COc1ccc(/C=N/NC(=O)CSc2n[nH]c(=O)[nH]c2=O)cc1,active: 20 µM,–
CCN1CCN(C(c2cc3cc4c(cc3[nH]c2=O)OCO4)c2nnnn2C(C)(C)CC)CC1 (stereo unspecified),"inconclusive [inhibitor, partial curve]",–
CC(C)n1nnc2cc(C(=O)O)ccc21,"inconclusive [inhibitor, partial curve, poor fit]",–
O=C(c1ccncc1)N1CCN(C(=O)c2cccs2)CC1,–,inactive: 0.012%
CC(C)C(=O)N1CCc2cc(-c3csc(N)n3)ccc21,active: 20 µM,–
CCN(CC)C(=O)c1sc(NC(=O)c2cccc([N+](=O)[O-])c2)c(C#N)c1C,active: 7.08 µM,–
O=C(Nc1ccc(F)cc1)N(Cc1ccco1)Cc1cc2cc3c(cc2[nH]c1=O)OCO3,"inconclusive [inhibitor, partial curve]",–
CCOC(=O)C1Oc2ccccc2C(c2ccccc2)=C1C(C)=O (stereo unspecified),–,inactive: -15.1%
Cc1ccc(-c2nn(-c3ccccc3)cc2CN(Cc2ccccc2)C(=O)c2ccco2)o1,–,inactive: -26.6%
CCOC(=O)Cc1csc(SCn2nnc3ccccc3c2=O)n1,–,inactive: -22.2%
COc1cc2oc(=O)cc(-c3cccc(-c4ccc(C(F)(F)F)cc4)c3)c2c(OC)c1OC,"inconclusive [inhibitor, partial curve]",–
CCN1CCN(c2cc(SC(C)C)nc(-c3ccc(OC)cc3)n2)CC1,"inconclusive [inhibitor, single point]",–
CCC(C)N=Cc1c(NCc2ccco2)nc2c(C)cccn2c1=O (stereo unspecified),"inconclusive [inhibitor, single point]",–
COc1ccc(NC(=O)c2ccc(CN(c3cc(Cl)ccc3C)S(=O)(=O)c3ccccc3)cc2)cc1OC,"inconclusive [inhibitor, partial curve]",–
O=C(CCCC(=O)OCC(F)(F)C(F)F)Nc1nccs1,–,inactive: -2.47%
COc1ccccc1OC[C@H](O)COC(N)=O,–,inactive: 6.21%
COCc1cc(C)[nH]c(=O)c1C#N,"inconclusive [inhibitor, partial curve]",–

Compound,Potency,"activity change, negative = inhibition"
CC(=O)c1cc(C#N)c(SCC(=O)O)nc1C,–,inactive: -5.52%
COc1ccc(NC(=O)N2CCCC3(CCN(C(=O)c4cc(C(F)(F)F)cc(C(F)(F)F)c4)CC3)C2)cc1,–,inactive: -7.09%
O=C(CSCc1c(Cl)cccc1Cl)Nc1ccc2c(c1)OCCO2,–,inactive: -14.8%
CC1(C)Cc2nc3oc4c(NCc5ccccc5)ncnc4c3cc2CO1,"inconclusive [inhibitor, partial curve]",–
Cc1nn(C)c(C)c1S(=O)(=O)N1CCC(C(=O)NCC2COc3ccccc3O2)CC1 (stereo unspecified),–,inactive: -5.81%
COC(=O)c1cc(OC)c(OC)cc1NC(=O)c1ccc(OC)cc1,"inconclusive [inhibitor, partial curve]",–
COc1ccc(OCC(=O)Nc2ccc(NC(=O)c3ccco3)cc2)cc1,"inconclusive [inhibitor, partial curve]",–
O=C(O)[C@H]1[C@H](C(=O)O)[C@H](C(=O)O)C[C@@H]1C(=O)O,–,inactive: -9.71%
COc1cc(C2Nc3cccc4cccc(c34)N2)cc(OC)c1O,"inconclusive [inhibitor, partial curve]",–
Cc1nc2c3ccccc3nc(SCC(=O)N3CC(C)CC(C)C3)n2n1 (stereo unspecified),"inconclusive [inhibitor, single point]",–
CC1=Nn2c(nnc2C2CCCCC2)SC1,active: 28.2 µM,–
O=C(Nc1ccccc1N1CCN(C(=O)c2ccc(Cl)cc2)CC1)c1cc2ccccc2o1,"inconclusive [inhibitor, partial curve]",–
CCC(=O)c1cc(F)c(N2CCN(C(=O)c3ccco3)CC2)cc1C,–,inactive: -20.2%
c1ccc(-c2ccc(N3CC[C@@]4(CCCNC4)C3)cc2)cc1,"inconclusive [inhibitor, partial curve]",–
O=C(Nc1nnc(C2CC2)s1)c1ccc(S(=O)(=O)c2ccccc2)cc1,–,inactive: -11.4%
Nc1nc(NC(=O)/C=C/c2ccccc2)nn1-c1ccccc1,–,inactive: -3.01%
CC(C)N1CCc2c(sc(N)c2C#N)C1,"inconclusive [inhibitor, partial curve]",–
COC(=O)CCCC1=CC2=C(c3ccccc3)C(=O)C(C)(OC(=O)C3CCCC3)C(=O)C2=CN1CC(C)C (stereo unspecified),–,inactive: -4.47%
Cc1[nH]n2c(=O)cc(C(C)C)nc2c1-c1ccccc1,"inconclusive [inhibitor, single point]",–
CCOCCCNC(=O)c1cc2sc(Cl)cc2n1CC,"inconclusive [inhibitor, partial curve]",–
Cc1ccc(NC2=CC(=O)C(=O)c3ccccc32)cc1,active: 20 µM,–
CCOc1ccc(C(=S)N2CCOCC2)cc1OCC,"inconclusive [inhibitor, partial curve]",–
CCN(CC)c1nc(C)c2c(c1C#N)CC(C)(C)OC2,"inconclusive [inhibitor, partial curve]",–

# Source: PubChem BioAssay AID894 (National Center for Advancing Translational Sciences (NCATS), 2007)
